Laboratory results reported in patent publication US20220411514A1, “ANTI-GAL3 ANTIBODIES AND METHODS OF USE FOR INSULIN RESISTANCE” (TrueBinding, Inc., priority 2021, published 2022).

Experiments:
[1] = target: interaction between Gal3 and GLUT1 (Homo sapiens, UniProt P17931); assay: Gal3-GLUT1 blocking ELISA; type: binding; settings: antibody 3-fold dilutions
Experimental: (§1) Human Gal3 protein was diluted in PBS to a concentration of 2 μg/mL and used to coat a 96-well ELISA plate with 40 μL per well. After incubating the plate at 4° C. overnight, the plate was washed three times with 300 μL PBST. A blocking step was performed with 150 μL of 2% BSA in PBST per well and incubated for an hour at RT with gentle rocking. The existing blocking solution was then discarded form the plate. […] 30 μL of 3 μg/mL of FLAG-tagged GLUT1 or GLUT4 protein diluted in 2% BSA in PBST was then added to the appropriate wells containing antibody or control solution. The plate was incubated for an hour at RT with gentle rocking and then washed three times with 300 μL PBST. Afterwards, HRP-tagged anti-FLAG antibody was diluted to 1:4000 in 2% BSA in PBST, and 25 μL was added to all of the wells. The plate was incubated for an hour at RT with gentle rocking, and then washed with 300 μL PBST three times. To develop the plate, 50 μL of ABTS substrate was added to each well and incubated until a sufficiently high signal was achieved. The plate was read with a plate reader at an absorbance of 405 nm. Data was graphed using GraphPad Prism 8.0 software and IC50 values were generated using manufacturer instructions.

[2] = target: interaction between Gal3 and GLUT4 (Homo sapiens, UniProt P17931); assay: Gal3-GLUT4 blocking ELISA; type: binding; settings: antibody 3-fold dilutions
Sequence of interaction between Gal3 and GLUT4 (P17931 whole entry): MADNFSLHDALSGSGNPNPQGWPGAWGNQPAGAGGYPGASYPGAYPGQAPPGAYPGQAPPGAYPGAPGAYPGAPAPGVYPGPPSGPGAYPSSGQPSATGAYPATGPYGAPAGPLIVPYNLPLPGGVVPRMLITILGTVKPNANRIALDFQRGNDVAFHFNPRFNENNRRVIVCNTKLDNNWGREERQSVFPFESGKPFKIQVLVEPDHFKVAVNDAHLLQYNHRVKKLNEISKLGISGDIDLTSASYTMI
Experimental: as §1

[3] = test system: GLUT4 translocation in L6 GLUT4myc myoblasts; assay: Insulin-stimulated GLUT4 translocation with Gal3 and anti-Gal3 antibody; type: cell-based, rat; settings: 30 μg/mL Gal3 pre-incubated with 60 μg/mL antibody, 100 nM insulin
Experimental: Rat L6 GLUT4myc myoblasts (Kerafast #ESK202-FP) express a Myc-tagged GLUT4 that can be detected with an anti-Myc antibody. These cells were grown in a 48-well plate in MEM u growth media (Gibco, #12-571-063)+10% fetal bovine serum (FBS; Corning #35-016-CV) until 90-95% confluence was reached. Cells were then washed in PBS and serum starved for 2 hours in MEM u growth media without FBS. Thirty (30) μg/mL recombinant human Gal3 (TrueBinding QCB200347) was pre-incubated with 60 μg/mL anti-Gal3 antibodies for 30 minutes before being added to the serum-starved cells for 1 hour at 37° C. At the end of incubation, half of the cells were treated with 100 nM insulin (Sigma-Aldrich #I5523-50MG) for 20 minutes while the other half acted as basal controls. After 20 minutes, cells were washed quickly with ice cold PBS twice, then incubated with 4% paraformaldehyde (Boster Bio #AR1068) for 10 minutes on ice followed by 10 minutes at room temperature. The cells were washed three times with PBS, then blocked with 0.5 mL 5% goat serum (Vector Laboratories #101098-382) in PBS for 15 minutes. After the blocking agent was aspirated from the cells, 1 μg/ml anti-Myc polyclonal antibody (Sigma-Aldrich #C-3956) in 5% goat serum was added for 1 hour. […] Primary antibody was aspirated away, and then cells washed 5 times with PBS. Next, cells (including background controls) were incubated with 1:1000 goat anti rabbit antibody secondary antibody (Abcam #Ab97051) in 5% Goat serum for 30 minutes at room temperature. After washing, cells were incubated with 400 μL of TMB (Thermo Scientific #PI34029) for 5 minutes, then 200 μL of 1N HCL (Avantor Performance #JT5620-2) was added to stop the reaction. 100 μL of the sample was transferred to a 96 well plate with duplicates transferred for each condition. Samples were read at 450 nm on a SpectraMax plate reader. […] The fold changes were plotted on GraphPad Prism and presented as mean (SEM) of the technical replicates. Statistical significance was determined using unpaired T-tests comparing samples treated with Gal3 and insulin with all other conditions.

L6 myoblasts = assay: Antibody internalization into skeletal muscle cells; type: cell-based, rat; settings: with 2 or 10 μg/mL Gal3 or without Gal3, 3 hours
Experimental: It was tested whether anti-Gal3 antibodies were internalized into skeletal muscle cells. L6 myoblasts were seeded at a density of 10000 cells per well in a black clear bottom 96 well plate in L6 complete medium. The next day, the cells were serum starved using serum-free medium in the morning for 2 hours before proceeding with the following internalization experiment. […] The fluorophore-conjugated antibodies were then mixed with Gal3 protein (2 μg/mL or 10 μg/mL Gal3) or without Gal3 as control, and this mixture was added to the myoblasts. After 3 hours of incubation, fluorescent images of the cells were taken.

[4] = target: T1, interaction of Gal3 and INSR (Homo sapiens, UniProt P17931); assay: Gal3-INSR blocking ELISA; type: binding; settings: antibody 3 μg/mL
T1 construct: 6xHis (linker-spaced) (C); purchased Acro Biosystems (Gal3); Sino Biological (INSR) GA3-H5129; 11086-H08H
T1 sequence (P17931 2-250 limits assumed): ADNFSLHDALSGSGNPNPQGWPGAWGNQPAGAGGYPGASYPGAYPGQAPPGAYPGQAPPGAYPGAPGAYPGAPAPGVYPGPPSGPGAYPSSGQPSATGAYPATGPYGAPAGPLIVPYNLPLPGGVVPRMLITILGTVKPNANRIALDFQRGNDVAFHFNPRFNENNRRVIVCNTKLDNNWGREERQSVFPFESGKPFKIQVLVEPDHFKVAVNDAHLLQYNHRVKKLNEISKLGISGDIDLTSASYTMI
Experimental: Positively scoring wells were evaluated for the ability to block association of Gal3 and INSR. To identify Gal3-targeted antibodies with the ability to block the interaction of Gal3 and INSR, purified Gal3 and INSR proteins were incubated in the presence of Gal3-immunization hybridoma supernatants described above, or without antibody, and protein interaction was evaluated by ELISA. Human Galectin-3 protein (Acro Biosystems, GA3-H5129) was diluted in PBS (Corning, 21-030-CM) to a concentration of 3 μg/ml and added to the wells of a 96-well ELISA plate (Thermo Fisher, 44-2404-21). After incubating the plate at 4° C. overnight, the plate was washed three times with PBST (PBS with 0.05% Tween 20 [VWR, 0777]). The plate was then blocked for an hour with 2% BSA (EMD Millipore, 126609) in PBST at room temperature with gentle rocking. Thereafter, the 2% BSA in PBST was discarded and antibody or inhibitor (3-fold dilutions beginning at 20 μg/ml, 60 μg/ml, or 180 μM) in 2% BSA in PBST was added to the wells. Afterwards, 6 μg/ml of human Insulin Receptor (Sino Biological, 11086-H08H) in 2% BSA in PBST was added to the antibody or inhibitor in the wells in a 1:1 ratio. The plate was incubated for an hour at room temperature with gentle rocking. […] The reaction was stopped with 1M HCl (JT Baker, 5620-02) and read using a plate reader (Molecular Devices) at absorbance of 450 nm.

hGal3 peptide = target: T2, hGal3 peptide (Homo sapiens, UniProt P17931); assay: Gal3 peptide library binding ELISA (Example 2)
T2 construct: a library of 24 amino acid peptides representing portions of Gal3
Experimental: To identify the epitopes to which Gal3 antibodies with and without Gal3-INSR blocking activity bound, a library of 24 amino acid peptides representing portions of Gal3, depicted in FIG. 18, was produced and the ability of each peptide to bind Gal3 antibodies was evaluated by ELISA. At least 2 μg/ml of hGal3 peptide in 50 μl of PBS or 0.1 μg/ml of full-length human Gal3 protein (GenScript) and human Galectin-3 protein (Acro Biosystems, GA3-H5129) were diluted in PBS (Corning, 21-030-CM) to concentrations of at least 2 μg/ml or 0.1 μg/ml, respectively, and added to the wells of a 96-well ELISA plate (Thermo Fisher, 44-2404-21). After incubating the plate at 4° C. overnight, the plate was washed three times with PBST (PBS with 0.05% Tween 20 [VWR, 0777]). The plate was then blocked for an hour with 2% BSA (EMD Millipore, 126609) in PBST at room temperature with gentle rocking. Thereafter, the 2% BSA in PBST was discarded and human Galectin-3 hybridoma supernatants or antibodies were diluted in 2% BSA in PBST to concentrations of at least 0.1 μg/ml and added to the wells. The plate was incubated for an hour at room temperature with gentle rocking and then washed three times with PBST. Afterwards, Goat Anti-Mouse IgG-HRP (Jackson ImmunoResearch, 115-036-1461) or Goat Anti-Rat IgG HRP (Abcam, ab205720) diluted in 2% BSA in PBST (1:4000) were added to the wells. The plate was incubated for 30 minutes to 1 hour at room temperature with gentle rocking and then washed three times with PBST. TMB substrate (Thermo Scientific, 34029) was then added to each well. The reaction was stopped with 1M HCl (JT Baker, 5620-02) and read using a plate reader (Molecular Devices) at absorbance of 450 nm.

Human Gal3 peptides = target: T3, Human Gal3 peptides (Homo sapiens, UniProt P17931); assay: Gal3 peptide binding ELISA (Example 8); settings: antibody 5 μg/mL
T3 construct: purchased LifeTein custom order
In short: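 Plates coated overnight at 4 °C with human Gal3 peptides (at least 100 μg/mL) or Gal3 protein (1 μg/mL) in PBS, then blocked with 2% BSA/PBST. Antibodies as hIgG4 (S228P) at 5 μg/mL, 1 h at room temperature. Detection by HRP anti-human IgG F(ab′)2 and TMB, absorbance at 450 nm.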

Sequence of interaction between Gal3 and GLUT1 (P17931 whole entry): as the sequence (P17931 whole entry) above

Row | inhibition of GLUT1 binding to Gal3 [1] | inhibition of GLUT4 binding to Gal3 [2] | reduction of Gal3-INSR binding/assembly [4] | binding to Gal3 peptide 1 (amino acids 1-20, SEQ ID NO: 3) (hGal3 peptide) | binding to Gal3 peptide 7 (amino acids 61-80, SEQ ID NO: 9) (hGal3 peptide) | binding to Gal3 peptide 1 (SEQ ID NO: 3) (Human Gal3 peptides) | binding to Gal3 peptide 6 (SEQ ID NO: 8) (Human Gal3 peptides) | binding to Gal3 peptide 7 (SEQ ID NO: 9) (Human Gal3 peptides) | binding to Gal3 peptide 8 (SEQ ID NO: 10) (Human Gal3 peptides) | binding to Gal3 peptide 10 (SEQ ID NO: 12) (Human Gal3 peptides) | Molecule | effect on Gal3 block of insulin-stimulated GLUT4 translocation [3] | internalization of fluorophore-conjugated antibody into myoblasts (L6 myoblasts)
1 | concentration-dependent ability | concentration-dependent ability |  |  |  |  |  |  |  |  | 2D10-VH0-VL0: anti-Gal3 antibody (antibody, 2D10-VH0-VL0 heavy chain peptide sequence; 2D10-VH0-VL0 light chain peptide sequence, anti-Gal3 antibody) heavy: QFQLQQSGPELVKPGASVKISCKASGYTFTDYYINWVKQRPGQGLEWIGWIYPGSNDTKYNEKFKGKATLTVDTSSSTAYMQLGSLTSEDSAVYFCANYFGCSGWFFDVWGTGTTVTVSSASTKGPSVFPLAPCSRSTSESTAALGCLVKDYFPEPVTVSWNSGALTSGVHTFPAVLQSSGLYSLSSVVTVPSSSLGTKTYTCNVDHKPSNTKVDKRV[in this place human IgG4 Fc with S228P (EU numbers)] light: DIVMTQAAFSNPVTLGTSASISCRSSKSLLHSDGITYLYWYLQRPGQSPQLLIYRMSNLASGVPDRFSGSGSGTDFTLRISRVEAEDVGVYYCAQMIEFPLTFGAGTILELKRTVAAPSVFIFPPSDEQLKSGTASVVCLLNNFYPREAKVQWKVDNALQSGNSQESVTEQDSKDSTYSLSSTLTLSKADYEKHKVYACEVTHQGLSSPVTKSFNRGEC | reduce the ability of Gal3 to block GLUT4 translocation | internalized into the myoblasts only in the presence of Gal3
2 |  |  | greater than 99% | bound | bound | bound | bound | bound | bound | bound | 15G7.2A7: anti-Gal3 antibody (antibody, 15G7.2A7 heavy chain peptide sequence; 15G7.2A7 light chain peptide sequence, anti-Gal3 antibody) heavy: EVQLQQSGPELVKPGASVKISCKASGYTFTDYYMNWVKQSHGKSLEWIGDINPNNGGTNYNQKFKGKATLTVDKSSSTAYMELRSLTSEDSAVYYCTSGYGFPYWGQGTLVTVSAASTKGPSVFPLAPCSRSTSESTAALGCLVKDYFPEPVTVSWNSGALTSGVHTFPAVLQSSGLYSLSSVVTVPSSSLGTKTYTCNVDHKPSNTKVDKRV[in this place human IgG4 Fc with S228P (EU numbers)] light: DIQMNQSPSSLSASLGDTISITCRASQNINIWLSWYQQKPGNIPQLLIYKASNLHTGVPSRFSGSGSGTDFTLTISSLQPEDIATYYCLQGQSYPLTFGAGTKLVMKRTVAAPSVFIFPPSDEQLKSGTASVVCLLNNFYPREAKVQWKVDNALQSGNSQESVTEQDSKDSTYSLSSTLTLSKADYEKHKVYACEVTHQGLSSPVTKSFNRGEC |  | 
